{"source": "PubChem BioAssay AID651820", "about": "(National Center for Advancing Translational Sciences (NCATS), 2012)", "note": "About 12,000 (3.5%) of roughly 340,000 compounds were called active. Inconclusive results, whose numbers are uncertain, are shown with a selection of clear calls. The call rests on the fitted dose curve; in most records, active means well fitted inhibition curve with a large enough effect; inconclusive means small, poorly fitted or top-dose-only effect, or another doubt; inactive means no such curve, though single readings can be large or run the other way. Potencies of inconclusive entries are left out as doubtful fits. On the % scale 0 is the no-effect control and ±100 the full control effect; potency means the concentration at half of the fitted maximal effect; tags describe the fitted curve by direction and shape.", "data": [{"test": "qHTS Assay for Inhibitors of Hepatitis C Virus (HCV)", "settings": "Huh7.5.1 HCVcc-Cre (HCVcc is cell-culture hepatitis C virus) infection, luciferase reporter, 44 h; activity change, negative = inhibition: at 41.8 µM (top of the series) unless noted", "method_in_brief": "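Cells seeded at 1,000/well and cultured 4 h, then compounds added followed by HCVcc-Cre virus (~0.5 moi). After 44 h further culture, luciferase substrate was added, plates held 15 min at room temperature, and luminescence read for 15 sec.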", "values": [{"molecule": "Cc1cc(NS(=O)(=O)c2ccc(NC(=O)CCCOc3cccc(C)c3C)cc2)no1", "Potency": "inactive"}, {"molecule": "NS(=O)(=O)c1cc2c(cc1Cl)NCNS2(=O)=O", "activity change, negative = inhibition": "inactive: 0.986% [at 8.37 µM]"}, {"molecule": "Cc1ccc2c(c1)OC(c1ccc3c(c1)OCCO3)CC2=O", "note": "(stereo unspecified)", "Potency": "inconclusive [inhibitor, single point]"}, {"molecule": "c1ccc2c(c1)OCC(CNCC1COc3ccccc3O1)O2", "note": "(stereo unspecified)", "Potency": "inactive"}, {"molecule": "Cc1ccc(NC(=O)c2scc3c2CCCC3)cc1", "Potency": "inactive"}, {"molecule": "Cc1nnc2ccc(-c3ccc(NS(=O)(=O)c4ccc(F)cc4F)cc3)nn12", "Potency": "inconclusive [inhibitor, partial curve, poor fit]"}, {"molecule": "N#C/C(=C\\c1cccnc1)c1ccc([N+](=O)[O-])cc1", "Potency": "inactive"}, {"molecule": "COc1ccc(S(=O)(=O)N(C)C[C@H]2Oc3c(NC(=O)NC4CCCCC4)cccc3C(=O)N([C@H](C)CO)C[C@@H]2C)cc1", "Potency": "inconclusive [inhibitor, single point]"}, {"molecule": "CCN(CC)S(=O)(=O)c1cc(C)c(C)cc1Br", "Potency": "inconclusive [inhibitor, single point]"}, {"molecule": "COCCCNC(=O)c1ccc(OC)c(OC2CCN(C(C)C)CC2)c1", "Potency": "active: 22.4 µM"}, {"molecule": "CCCCN(Cc1ccccc1)S(=O)(=O)c1cc2c(cc1Br)CC(C)N2C(C)=O", "note": "(stereo unspecified)", "Potency": "inconclusive [inhibitor, single point]"}, {"molecule": "CSc1ccc(S(=O)(=O)NCC(=O)OCC(=O)NCc2ccco2)cc1[N+](=O)[O-]", "activity change, negative = inhibition": "inconclusive: -91.3% [inhibitor]"}, {"molecule": "CCn1c(C(=O)OC)cc2c1ccn2-c1ccc(F)cc1", "Potency": "active: 4.47 µM"}, {"molecule": "CCC(CO)NC(=O)c1ccccc1C(F)(F)F", "note": "(stereo unspecified)", "Potency": "inactive"}, {"molecule": "CCCCN(C(=O)CCCSc1nc2ccccc2[nH]1)c1c(N)n(Cc2ccccc2)c(=O)[nH]c1=O", "Potency": "inactive"}, {"molecule": "CCCSc1nc(N)nc(-c2cccs2)c1C#N", "Potency": "inconclusive [inhibitor, single point]"}, {"molecule": "CCOc1ccc(N/C=C/C(=O)c2ccccc2)c([N+](=O)[O-])c1", "Potency": "inactive"}, {"molecule": "COc1cc(C(=O)OCC(C)=O)ccc1OCc1c(C)noc1C", "Potency": "inconclusive [inhibitor, full curve, poor fit]"}, {"molecule": "COc1ccc(CN(C)CC(O)COc2ccc(-c3ccccc3)cc2)cc1OC", "note": "(stereo unspecified)", "Potency": "active: 7.08 µM"}, {"molecule": "Cc1ccc(C(=O)Nc2cccc(S(=O)(=O)N3CCOCC3)c2)cc1[N+](=O)[O-]", "Potency": "inconclusive [inhibitor, partial curve]"}, {"molecule": "Cc1nnsc1C(=O)NNc1ccc(C(C)(C)C)cc1", "Potency": "inactive"}, {"molecule": "O=C(N/N=C/c1cccc(Cl)c1)C(c1ccncc1)N1CCOCC1", "note": "(stereo unspecified)", "Potency": "inactive"}, {"molecule": "COc1ccc(CN2C(=O)/C(=C/c3ccncc3)SC2=S)cc1", "Potency": "inconclusive [inhibitor, single point]"}, {"molecule": "CC(NC(=O)Nc1ccc([N+](=O)[O-])cc1)C(c1ccccc1)N1CCOCC1", "note": "(stereo unspecified)", "Potency": "inactive"}, {"molecule": "CCc1ccc(NC(=O)C2=CC(c3cccs3)=NS(=O)(=O)N2C)cc1", "Potency": "inconclusive [inhibitor, single point]"}, {"molecule": "CC(C)n1c(N)c(C#N)c2ccc([N+](=O)[O-])cc2c1=O", "Potency": "inconclusive [inhibitor, partial curve]"}, {"molecule": "O=C(NC1CCCC1)c1ccc2nc[nH]c2c1", "Potency": "inactive"}, {"molecule": "O=C(c1ccc(F)cc1)c1c[nH]c(C(=O)NCc2cccnc2)c1", "Potency": "inconclusive [inhibitor, single point]"}, {"molecule": "Cc1cc(SCC(=O)c2ccccc2)nc(SCC(=O)c2ccccc2)n1", "Potency": "inconclusive [inhibitor, single point]"}, {"molecule": "O=C(O)c1cc(N/C(=N\\S(=O)(=O)c2ccc(F)cc2)c2ccccc2)ccc1O", "Potency": "inactive"}, {"molecule": "CCOc1ccccc1C(=O)NCC(=O)OCCCOC(=O)CNC(=O)c1ccccc1OCC", "Potency": "inconclusive [inhibitor, partial curve, poor fit]"}, {"molecule": "COc1cccc(CN2CC(C(=O)NCc3cccc(N4CCCC4)c3)CCC2=O)c1", "note": "(stereo unspecified)", "Potency": "inconclusive [inhibitor, single point]"}, {"molecule": "Cc1onc(-c2ccccc2Cl)c1C(=O)Nc1sc2c(c1C(N)=O)CCC(C)C2", "note": "(stereo unspecified)", "Potency": "inconclusive [inhibitor, single point]"}, {"molecule": "c1ccc(CCc2nn3c(-c4ccncc4)nnc3s2)cc1", "Potency": "inactive"}, {"molecule": "Cc1cccc(NC(=S)NNC(=O)c2cccc([N+](=O)[O-])c2)c1", "Potency": "inactive"}, {"molecule": "O=C(NCCCN1CCN(CCCNC(=O)c2ccc(F)cc2)CC1)c1ccc(F)cc1", "Potency": "inconclusive [inhibitor, single point]"}, {"molecule": "Cc1ccc(NC(=O)CN2C(=O)NC3(CCc4ccccc43)C2=O)cc1Cl", "note": "(stereo unspecified)", "Potency": "inconclusive [inhibitor, full curve, poor fit]"}, {"molecule": "O=C(Nc1ccc(C(O)(C(F)(F)F)C(F)(F)F)cc1)c1ccc(Cl)c([N+](=O)[O-])c1", "Potency": "inconclusive [inhibitor, single point]"}, {"molecule": "O=C(N/N=C\\c1ccncc1)c1ccc(Br)s1", "Potency": "inconclusive [inhibitor, single point]"}, {"molecule": "O=C(Nc1ccc2c(c1)OCO2)c1ccc(Br)c(S(=O)(=O)N2CCCC2)c1", "Potency": "inconclusive [inhibitor, single point]"}, {"molecule": "O=C(COC(=O)Cc1n[nH]c(=O)c2ccccc12)Nc1c(Br)cc([N+](=O)[O-])cc1Br", "Potency": "inactive"}, {"molecule": "COc1ccc(NS(=O)(=O)c2cccc3ccccc23)cc1", "Potency": "inconclusive [inhibitor, single point]"}, {"molecule": "C#CCOCCOCCOCCNc1nc(N2CCN(C(=O)[C@H](CCC(=O)O)n3cc(C(N)CO)nn3)CC2)nc(N2CCN(C(=O)[C@H](CCC(=O)O)n3cc(C(N)[C@H](C)CC)nn3)CC2)n1", "note": "(stereo partly specified)", "Potency": "inactive"}, {"molecule": "Cc1nnc(SCc2nc3ccccc3s2)n1-c1ccccc1", "Potency": "inconclusive [inhibitor, single point]"}, {"molecule": "COC(=O)c1ccc(C)c(NC(=O)COC(=O)C2CC3CCCC(C2)C3=O)c1", "note": "(stereo unspecified)", "Potency": "inactive"}, {"molecule": "O=C(Nc1ccc(C(=O)OC[C@@H]2CCCN3CCCC[C@H]23)cc1)c1cccc(Br)c1", "Potency": "active: 11.2 µM"}]}]}
